# Values joined by “and” are separate entries in the source; they are usually repeats but may differ in a detail not shown here. Equal entries are not always repeated. The shares of active, inactive and inconclusive entries below differ from those in the screen. Entries that show only a call come without a potency. For some of these results: Potencies beside an inconclusive call are fits to weak or partial responses and may not hold up. Where a structure was tested more than once in an assay, its records may differ in their call. Active and inactive are the calls of the source. The call rests on the fitted dose curve; in most records, active means well fitted curve in the direction sought with a large enough effect; inconclusive means small, poorly fitted or top-dose-only effect, or another doubt; inactive means no such curve, though single readings can be large; an effect the other way counts as inactive or inconclusive.
# Legend:
# WaGa = test: qHTS assay to identify novel small-molecules to repurpose for Merkel cell carcinoma treatment (AID 1296009); conditions: MCC and control cell lines, CellTiter-Glo viability, 72 h; series mostly up to 46 µM; further: nearly all actives have a fitted effect of over 60% in size
# How it was run: (§1)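 qHTS format: cells treated with library compounds in DMSO across 8 (NPC) or 11 (MIPE) concentrations. Readout after 72 hr at 37 degree celsius was CellTiter-Glo luminescence.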
# UISO = test: as above; conditions: MCC and control cell lines, CellTiter-Glo viability, 72 h; series mostly up to 46 µM
# How it was run: as §1
# CASKI = test: Primary qHTS to identify gynecologic anti-cancer compounds using libraries of approved drugs and bioactive compounds (AID 1345084); conditions: Gynecologic cancer cell panel viability, ATPlite luminescence, 48 h; series mostly up to 57.5 µM; further: nearly all actives have a fitted effect of over 55% in size
# How it was run: (§2)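 Luminescence from the ATPlite ATP-monitoring reagent indicates viable cell number; lower signal means cytotoxicity. Cells received compound 16 h after seeding and were exposed for 48 h across five concentrations.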
# HeLa = test: as above; conditions: Gynecologic cancer cell panel viability, ATPlite luminescence, 48 h; series mostly up to 57.5 µM
# How it was run: as §2
# C33A = test: as above; conditions: Gynecologic cancer cell panel viability, ATPlite luminescence, 48 h; series mostly up to 57.5 µM
# How it was run: as §2
# Es-2 = test: as above; conditions: Gynecologic cancer cell panel viability, ATPlite luminescence, 48 h; series mostly up to 57.5 µM
# How it was run: as §2
# Potency means the concentration at half of the fitted maximal effect; tags describe the fitted curve by direction and shape.
smiles,measurement,setting,value
O=c1[nH]c(=O)n([C@H]2C[C@@H](O)[C@@H](CO)O2)cc1C=CBr,Potency,WaGa,inactive
CCc1nc(N)nc(N)c1-c1ccc(Cl)cc1,Potency,UISO,"inconclusive: 13.3 µM [inhibitor, partial curve] and inconclusive: 16.6 µM [inhibitor, partial curve]"
same,Potency,WaGa,"active: 11.9 µM and inconclusive: 18.7 µM [inhibitor, partial curve]"
same,Potency,CASKI,"inconclusive: 39.8 µM [cytotoxic, single point]"
OC(c1cc(C(F)(F)F)nc2c(C(F)(F)F)cccc12)C1CCCCN1 (centres undefined),Potency,WaGa,inactive
N#Cc1ccc(Oc2ccc3c(c2)COB3O)cc1,Potency,UISO,inactive
same,Potency,WaGa,inactive
same,Potency,HeLa,"inconclusive: 39.8 µM [cytotoxic, single point]"
Cc1nc(C(=O)NCC(=O)O)c(O)c2ccc(Oc3ccccc3)cc12,Potency,WaGa,inactive
CCN(CCO)CCCC(C)Nc1ccnc2cc(Cl)ccc12 (centres undefined),Potency,WaGa,active: 2.35 µM
C=CCc1cc(OC)c(O)c(C(=O)NCCO)c1,Potency,UISO,"inconclusive: 33.5 µM [inhibitor, single point]"
same,Potency,C33A,inactive
same,Potency,CASKI,inactive
same,Potency,Es-2,inactive
NCCCCCC(=O)O,Potency,WaGa,inactive
O=C1NC(=O)C(=Cc2ccc3c(c2)OC(F)(F)O3)S1,Potency,WaGa,"inconclusive: 16.6 µM [inhibitor, partial curve]"
NCCc1cnc[nH]1,Potency,WaGa,inactive
CCOC(=O)c1c(CSc2ccccc2)n(C)c2cc(Br)c(O)c(CN(C)C)c12,Potency,WaGa,inactive
NC(=O)NN=Cc1ccc([N+](=O)[O-])o1,Potency,WaGa,"inconclusive: 20.9 µM [inhibitor, partial curve, poor fit]"

# Source: PubChem BioAssay (NCATS)
